In the supplement of paper PMC9750983:
± gives the spread of the averaged measurements.

How the values were obtained:
Experiment in all cases: optical density OD600 after 20 h growth (OD600 (absorbance)); higher = more growth (less inhibition)
[1] = test system: Escherichia coli DH5alphaPro overexpressing yfbR
Description: (§1)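 E. coli DH5alphaPro carrying an IPTG-inducible medium-copy plasmid (empty control, or overexpressing katG, lpxM or yfbR; 1 mM IPTG, 50 ug/mL kanamycin) grown in 96-well plates at 7 log-spaced antibiotic doses, sealed with paper film without mineral oil, 37 C, 250 rpm. Read-out is raw OD600 after 20 h (cell-free LB ~0.05); at least six biological replicates per strain and antibiotic; inter-day variability noted by authors.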

[2] = test system: Escherichia coli DH5alphaPro empty vector control
Description: as §1

[3] = test system: Escherichia coli DH5alphaPro overexpressing katG
Description: as §1

[4] = test system: Escherichia coli DH5alphaPro overexpressing lpxM
Description: as §1

CC1(C)S[C@@H]2[C@H](NC(=O)[C@H](N)c3ccc(O)cc3)C(=O)N2[C@H]1C(=O)O.O=C(O)[C@H]1/C(=C/CO)O[C@@H]2CC(=O)N21 [amoxicillin/clavulanate]
optical density OD600
Settings	antibiotic concentration 0.01 ug/mL	antibiotic concentration 0.0316 ug/mL	antibiotic concentration 0.1 ug/mL	antibiotic concentration 0.3162 ug/mL	antibiotic concentration 1 ug/mL	antibiotic concentration 3.1623 ug/mL	antibiotic concentration 10 ug/mL
[1]	0.496 ± 0.18	0.572 ± 0.21	0.597 ± 0.26	0.626 ± 0.25	0.501 ± 0.16	0.0624 ± 0.0089	–
[2]	0.678 ± 0.18	0.619 ± 0.19	0.721 ± 0.16	0.646 ± 0.14	0.718 ± 0.18	–	< 0.05
[3]	0.89 ± 0.24	0.922 ± 0.26	0.797 ± 0.27	0.788 ± 0.3	0.732 ± 0.31	–	< 0.05
[4]	0.666 ± 0.17	0.724 ± 0.19	0.865 ± 0.17	0.77 ± 0.14	0.676 ± 0.073	–	–

CC1(C)S[C@@H]2[C@H](NC(=O)C(C(=O)O)c3ccccc3)C(=O)N2[C@H]1C(=O)O (stereo partly drawn) [carbenicillin]
optical density OD600
Settings	antibiotic concentration 0.05 ug/mL	antibiotic concentration 0.1581 ug/mL	antibiotic concentration 0.5 ug/mL	antibiotic concentration 1.5811 ug/mL	antibiotic concentration 5 ug/mL	antibiotic concentration 15.8114 ug/mL	antibiotic concentration 50 ug/mL
[1]	0.381 ± 0.079	0.386 ± 0.092	0.339 ± 0.092	–	0.0722 ± 0.0093	0.0655 ± 0.023	–
[2]	0.411 ± 0.066	0.398 ± 0.075	0.317 ± 0.11	0.167 ± 0.088	0.0712 ± 0.01	0.0591 ± 0.0045	–
[3]	0.46 ± 0.056	0.347 ± 0.17	0.311 ± 0.17	0.299 ± 0.12	0.23 ± 0.13	0.138 ± 0.11	0.0657 ± 0.015
[4]	0.466 ± 0.094	0.392 ± 0.2	0.387 ± 0.18	0.326 ± 0.15	0.176 ± 0.13	0.126 ± 0.098	–

CO/N=C(\C(=O)N[C@@H]1C(=O)N2C(C(=O)O)=C(CSc3nc(=O)c(O)nn3C)CS[C@H]12)c1csc(N)n1 [ceftriaxone]
optical density OD600
Settings	antibiotic concentration 0.016 ug/mL	antibiotic concentration 0.0506 ug/mL	antibiotic concentration 0.16 ug/mL	antibiotic concentration 0.506 ug/mL	antibiotic concentration 1.6 ug/mL	antibiotic concentration 5.0596 ug/mL	antibiotic concentration 16 ug/mL
[1]	0.238 ± 0.25	0.0757 ± 0.0062	0.0716 ± 0.0091	0.0682 ± 0.0056	0.0862 ± 0.012	0.0579 ± 0.0058	< 0.05
[2]	0.318 ± 0.44	0.1 ± 0.045	0.0964 ± 0.05	0.113 ± 0.051	0.102 ± 0.046	0.0759 ± 0.027	< 0.05
[3]	0.441 ± 0.18	0.324 ± 0.19	0.3 ± 0.23	0.238 ± 0.12	0.217 ± 0.097	0.0863 ± 0.039	–
[4]	0.375 ± 0.042	0.133 ± 0.014	0.122 ± 0.0035	0.121 ± 0.045	0.123 ± 0.03	0.0683 ± 0.022	< 0.05

O=C(N[C@H](CO)[C@H](O)c1ccc([N+](=O)[O-])cc1)C(Cl)Cl [chloramphenicol]
optical density OD600
Settings	antibiotic concentration 0.05 ug/mL	antibiotic concentration 0.1581 ug/mL	antibiotic concentration 0.5 ug/mL	antibiotic concentration 1.5811 ug/mL	antibiotic concentration 5 ug/mL	antibiotic concentration 15.8114 ug/mL
[1]	0.587 ± 0.26	0.645 ± 0.26	0.623 ± 0.28	0.436 ± 0.24	0.176 ± 0.11	0.0618 ± 0.012
[2]	0.659 ± 0.23	0.768 ± 0.3	0.691 ± 0.21	0.566 ± 0.21	0.122 ± 0.046	–
[3]	0.861 ± 0.24	0.791 ± 0.33	0.716 ± 0.22	0.579 ± 0.22	0.321 ± 0.2	–
[4]	0.861 ± 0.23	0.82 ± 0.27	0.744 ± 0.25	0.638 ± 0.24	0.262 ± 0.15	0.0709 ± 0.026

O=C(O)c1cn(C2CC2)c2cc(N3CCNCC3)c(F)cc2c1=O [ciprofloxacin]
optical density OD600
Settings	antibiotic concentration 0.001 ug/mL	antibiotic concentration 0.0032 ug/mL	antibiotic concentration 0.01 ug/mL	antibiotic concentration 0.0316 ug/mL	antibiotic concentration 0.1 ug/mL	antibiotic concentration 0.3162 ug/mL	antibiotic concentration 1 ug/mL
[1]	0.613 ± 0.22	0.64 ± 0.29	0.642 ± 0.31	0.451 ± 0.23	0.124 ± 0.053	0.065 ± 0.0077	0.117 ± 0.17
[2]	0.645 ± 0.23	0.595 ± 0.2	0.588 ± 0.19	0.492 ± 0.26	0.114 ± 0.024	0.0732 ± 0.019	0.0578 ± 0.0039
[3]	0.836 ± 0.31	0.88 ± 0.32	0.805 ± 0.3	0.622 ± 0.38	0.155 ± 0.092	0.0822 ± 0.037	–
[4]	0.816 ± 0.28	0.804 ± 0.27	0.688 ± 0.36	0.511 ± 0.36	0.136 ± 0.065	0.074 ± 0.024	0.0561 ± 0.0014

C[C@@H](O)[C@H]1C(=O)N2C(C(=O)O)=C(S[C@@H]3CN[C@H](C(=O)Nc4cccc(C(=O)O)c4)C3)[C@H](C)[C@H]12 [ertapenem]
optical density OD600
Settings	antibiotic concentration 0.01 ug/mL	antibiotic concentration 0.0316 ug/mL	antibiotic concentration 0.1 ug/mL	antibiotic concentration 0.3162 ug/mL	antibiotic concentration 1 ug/mL	antibiotic concentration 3.1623 ug/mL	antibiotic concentration 10 ug/mL
[1]	0.71 ± 0.33	0.6 ± 0.27	0.674 ± 0.34	0.668 ± 0.33	0.614 ± 0.26	0.487 ± 0.18	0.0717 ± 0.016
[2]	0.722 ± 0.18	0.764 ± 0.29	0.899 ± 0.23	0.85 ± 0.24	0.837 ± 0.22	0.833 ± 0.2	–
[3]	0.733 ± 0.27	0.679 ± 0.3	0.808 ± 0.27	0.818 ± 0.42	0.808 ± 0.35	0.687 ± 0.23	0.0979 ± 0.043
[4]	0.838 ± 0.21	0.717 ± 0.23	0.826 ± 0.23	0.85 ± 0.31	0.879 ± 0.29	0.785 ± 0.18	0.116 ± 0.088

CNC(C)C1CCC(N)C(OC2C(N)CC(N)C(OC3OCC(C)(O)C(NC)C3O)C2O)O1 (stereo not drawn) [gentamicin]
optical density OD600
Settings	[1]	[2]	[3]	[4]
antibiotic concentration 0.05 ug/mL	0.631 ± 0.29	0.496 ± 0.2	0.768 ± 0.24	0.646 ± 0.18
antibiotic concentration 0.1581 ug/mL	0.312 ± 0.17	0.123 ± 0.058	0.301 ± 0.17	0.189 ± 0.061

CN[C@@H]1[C@H](O[C@H]2[C@H](O[C@H]3[C@H](O)[C@@H](O)[C@H](N=C(N)N)[C@@H](O)[C@@H]3N=C(N)N)O[C@@H](C)[C@]2(O)C=O)O[C@@H](CO)[C@H](O)[C@H]1O [streptomycin]
optical density OD600
Settings	antibiotic concentration 0.05 ug/mL	antibiotic concentration 0.1581 ug/mL	antibiotic concentration 0.5 ug/mL	antibiotic concentration 1.5811 ug/mL	antibiotic concentration 5 ug/mL	antibiotic concentration 15.8114 ug/mL	antibiotic concentration 50 ug/mL
[1]	0.655 ± 0.28	0.622 ± 0.3	0.606 ± 0.27	0.596 ± 0.21	0.639 ± 0.24	0.548 ± 0.25	0.0543 ± 0.0043
[2]	0.71 ± 0.29	0.624 ± 0.19	0.684 ± 0.17	0.577 ± 0.13	0.575 ± 0.15	0.186 ± 0.13	–
[3]	0.974 ± 0.29	0.977 ± 0.2	0.878 ± 0.27	0.866 ± 0.34	0.78 ± 0.22	0.493 ± 0.31	–
[4]	0.802 ± 0.27	0.716 ± 0.18	0.806 ± 0.22	0.811 ± 0.24	0.877 ± 0.25	0.696 ± 0.35	–
